Measured values reported in US20260200947A1, “FUSED CYCLIC COMPOUNDS AND USE THEREOF” (Jacobio Pharmaceuticals Co., Ltd., priority 2022, published 2026).

Compound	pIC50 (SW620 cells (K-Ras G12V))	pIC50 (AGS cells (K-Ras G12D))
C#Cc1c(F)ccc2cc(N)cc(-c3nc4c5c(nc(OC[C@@]67CCCN6C[C@H](F)C7)nc5c3F)N3CC(C)COCC3N4C)c12 (some centres unmarked) [Compound 46]	7.87	
C#Cc1c(F)ccc2cc(N)cc(-c3nc4c5c(nc(OC[C@@]67CCCN6C[C@H](F)C7)nc5c3F)N3CC(F)(F)COCC3N4C)c12 (some centres unmarked) [Compound 55]		8.14

pIC50: −log10 of the molar value.
